Experimental data published in the RNAGym collection of RNA variant scans (doi:10.1073/pnas.2313332121).
Variants at the floor of the assay are shown more often than the library holds them.

B1: TPR 5TU (parent)
chain: GGAUCUUCUCGAUCUAACAAAAAAGACAAAUCUGCCACAAAGCUUGAGAGCAUCUUCGGAUGCAGAGGCGGCAGCCUUCGGUGGCGCGAUAGCGCCAACGUUCUCAACUAUGACACGCAAAACGCGUGCUCCGUUGAAUGGAGUUUAUCAUG

Variants of: B1
Experiment: polymerase ribozyme fitness, log enrichment relative to wild type (log ratio); higher = more active; in vitro selection for triplet polymerase activity
How it was run: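 Mutant libraries were PCR-built and transcribed for each subunit of a heterodimeric triplet polymerase ribozyme and selected for one round in triplicate at −7 °C, frozen, before gel excision of extended constructs and streptavidin-bead capture. Input and output libraries were Illumina-sequenced, keeping genotypes with ≥10 input reads and ≥1 read per output. Fitness is a logarithmic ratio of genotype to wild-type enrichment, in base 2, using inverse-variance-weighted replicate averages.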

Row | Variant | polymerase ribozyme fitness (log ratio)
1 | GGAUCUUCUCGAUCUAACAAAAAAGACAAAUCUGCCACAAAGCUUGAGAGCAUCUUCGGAUGCAGAGGCGGCAGCCUUCGGUGGCGCUAUAGCGCCAACGUUCUCAACGAUGACACGCAAAACGCGUGCUCCGUUGAAUGGAGUUUAUCAUG [G88U U109G] | ≤ -4.2
2 | GGAUCUUCUCGAUCUAACAAAAAAGACAAAUCUGCCACAAAGCUUGAGAGCAUCUUCGGAUGCAGAGGCGGCAGCCUUCGGUGGCGCUAUAGCGCCAACGUUCUCAACUAUGACACGCAAAACGCGCGCUCCGUUGAAUGGAGUUUAUCAUG [G88U U127C] | -4.15
3 | GGAUCUUCUCGAUCUAACAAAAAAGACAAAUCUGCCACAAAGCUUGAGAGCAUCUUCGGAUGCAGAGGCGGCAGCCUUCGGUGGCGCUAUAGCGCCAACGUUCUCAACUAUGACACGCAAAACGCGUGCUCCGAUGAAUGGAGUUUAGCAUG [G88U U134A U148G] | ≤ -4.2
4 | GGAUCUUCUCGAUCUAACAAAAAAGACAAAUCUGCCACAAAGCUUGAGAGCAUCUUCGGAUGCAGAGGCGGCAGCCUUCGGUGGCGCGCUAGCGCCAACGUUCUCAACUAUGACACGCAAAACGCGUGCUCCGUUGAAUGGAGUUUAUCAUG [A89C] | -0.82
5 | GGAUCUUCUCGAUCUAACAAAAAAGACAAAUCUGCCACAAAGCUUGAGAGCAUCUUCGGAUGCAGAGGCGGCAGCCUUCGGUGGCGCGCUAGCGCCAACGUUCUCACCUAUGACACGCAAAACGCGUGCUCCGUUGAAUGGAGUUUAUCAUG [A89C A107C] | -4.06
6 | GGAUCUUCUCGAUCUAACAAAAAAGACAAAUCUGCCACAAAGCUUGAGAGCAUCUUCGGAUGCAGAGGCGGCAGCCUUCGGUGGCGCGCUAGCGCCAACGUUCUCAUCUAUGACACGCAAAACGCGUGCUCCGUUGAAUGGAGUUUAUCAUG [A89C A107U] | ≤ -4.2
7 | GGAUCUUCUCGAUCUAACAAAAAAGACAAAUCUGCCACAAAGCUUGAGAGCAUCUUCGGAUGCAGAGGCGGCAGCCUUCGGUGGCGCGCUAGCGCCAACGUUCUCAACUAUGACACGCAAAACGCGUGCUCCGUUGAAUGGGGUUUAUCAUG [A89C A142G] | -1.52
8 | GGAUCUUCUCGAUCUAACAAAAAAGACAAAUCUGCCACAAAGCUUGAGAGCAUCUUCGGAUGCAGAGGCGGCAGCCUUCGGUGGCGCGCUAGGGCCAACGUUGUCAACUAUGACACGCAAAACGCGUGCUCCGUUGAAUGGAGUUUAUCAUG [A89C C93G C103G] | ≤ -4.2
9 | GGAUCUUCUCGAUCUAACAAAAAAGACAAAUCUGCCACAAAGCUUGAGAGCAUCUUCGGAUGCAGAGGCGGCAGCCUUCGGUGGCGCGCUAGCGACAACGUUCUCAACUCUGACACGCAAAACGCGUGCUCCGUUGAAUGGAGUUUAUCAUG [A89C C95A A110C] | ≤ -4.2
10 | GGAUCUUCUCGAUCUAACAAAAAAGACAAAUCUGCCACAAAGCUUGAGAGCAUCUUCGGAUGCAGAGGCGGCAGCCUUCGGUGGCGCGCUAGCGUCAACGUUCUCAACUAUGACACGCAAAACGCGUGCUCCGUUGAAUGGAGUUUAUCAUG [A89C C95U] | -1.49
11 | GGAUCUUCUCGAUCUAACAAAAAAGACAAAUCUGCCACAAAGCUUGAGAGCAUCUUCGGAUGCAGAGGCGGCAGCCUUCGGUGGCGCGCUAGCGCAGACGUUCUCAACUAUGAGACGCAAAACGCGUGCUCCGUUGAAUGGAAUUUAUCAUG [A89C C96A A97G C114G G143A] | ≤ -4.2
12 | GGAUCUUCUCGAUCUAACAAAAAAGACAAAUCUGCCACAAAGCUUGAGAGCAUCUUCGGAUGCAGAGGCGGCAGCCUUCGGUGGCGCGCUAGCGCUAACGUUCUCAACUAUGACACGCAAAACGCGUGCUCCGUUGAAUGGAGUUUAUCAUG [A89C C96U] | -1.26
13 | GGAUCUUCUCGAUCUAACAAAAAAGACAAAUCUGCCACAAAGCUUGAGAGCAUCUUCGGAUGCAGAGGCGGCAGCCUUCGGUGGCGCGCUAGCGCCAACGUUCUCAAGUAUGACACGCAAAACGCGUGCUCGGUUGAAUGGAGUUUAUCAUG [A89C C108G C132G] | ≤ -4.2
14 | GGAUCUUCUCGAUCUAACAAAAAAGACAAAUCUGCCACAAAGCUUGAGAGCAUCUUCGGAUGCAGAGGCGGCAGCCUUCGGUGGCGCGCUAGCUCCAACGUUCUCAACGAUGCGACGCAAAACGCGUGCUCCGUUGAAUGGAGUUUAUCAUG [A89C G94U U109G A113C C114G] | ≤ -4.2
15 | GGAUCUUCUCGAUCUAACAAAAAAGACAAAUCUGCCACAAAGCUUGAGAGCAUCUUCGGAUGCAGAGGCGGCAGCCUUCGGUGGCGCGCUAGCGCCAACGUUCUCAACUAUGACACGCAAAACGCGUGCUCCGUUGAAUGGAAUUUAUCAUG [A89C G143A] | -0.0918
16 | GGAUCUUCUCGAUCUAACAAAAAAGACAAAUCUGCCACAAAGCUUGAGAGCAUCUUCGGAUGCAGAGGCGGCAGCCUUCGGUGGCGCGGUAGCGCCAACGUUCUCAACUAUGACACGCAAAACGCGUGCUCCGUUGAAUGGAGUUUAUCAUG [A89G] | -0.999
17 | GGAUCUUCUCGAUCUAACAAAAAAGACAAAUCUGCCACAAAGCUUGAGAGCAUCUUCGGAUGCAGAGGCGGCAGCCUUCGGUGGCGCGGUAGCGCCGACGUUCUCAACUAUGUCACGAACAACGCGUGCUCCGUUGAAUGCAGUUUAUCAUG [A89G A97G A113U C118A A120C G141C] | ≤ -4.2
18 | GGAUCUUCUCGAUCUAACAAAAAAGACAAAUCUGCCACAAAGCUUGAGAGCAUCUUCGGAUGCAGAGGCGGCAGCCUUCGGUGGCGCGGUAGGGCCAACGUGGUCAAUUAUGACACGCAAAACGCGUGCUCCGUUGAUUGGAGUUUAUCAUG [A89G C93G U102G C103G C108U A138U] | ≤ -4.2
19 | GGAUCUUCUCGAUCUAACAAAAAAGACAAAUCUGCCACAAAGCUUGAGAGCAUCUUCGGAUGCAGAGGCGGCAGCCUUCGGUGGCGCGGUAGCGACAACGUUCUCAACUAUGACACGCAAAACGCGUGCUCCGUUUAAUGGAGUUUAUCAUG [A89G C95A G136U] | -3.75
